# Some of the results follow.
# B1: P-Selectin (Mus musculus), Q01102 (protein)
# chain: MAGCPKGSWTPRLRSVILGGAQLIWFSALISELVNQKEVAAWTYNYSTKAYSWNNSRVFCRRHFTDLVAIQNKNEIAHLNDVIPFFNSYYWIGIRKINNKWTWVGTNKTLTEEAENWADNEPNNKKNNQDCVEIYIKSNSAPGKWNDEPCFKRKRALCYTASCQDMSCSNQGECIETIGSYTCSCYPGFYGPECEYVKECGKVNIPQHVLMNCSHPLGEFSFNSQCTFSCAEGYELDGPGELQCLASGIWTNNPPKCDAVQCQSLEAPPHGTMACMHPIAAFAYDSSCKFECQPGYRARGSNTLHCTGSGQWSEPLPTCEAIACEPPEIPIHGSMDCVPSTGTFGYNSSCTFLCAEGFVLKGNDAIQCADSGQWTAPAPFCEALQCPEFPVPSKAQVNCSDPFGTLTYQSVCSFSCDEGSLLVGASVIRCLATGHWNGAPPECQAVSCAPMLSPENGSMTCVQPLGNSTYKSTCQFMCDEGFYLSGPERLDCSPSGHWTGTPPTCEAIKCPGIFAPEQGNLDCSHVHGEFGVGSICHFSCNEDFELLGSENVECTVSGRWSAPPPTCKGITSLPAPAVRCPALTTPGQGTMSCQHHLGSFGPNTTCYFGCKTGFTLRGANSLRCRASGQWTAVTPMCRAVKCSELHMDTAVAMNCSNPWGNFSYGSTCTFQCPEGQSLNGSVRATCREDGHWSDAMPTCQAGTLTIQEALTYLGGAVASTTGLAVGGTLLALLRKRLRKKDDGKCPLNPHSHLGTYGVFTNAAYDPTP
# How the values were obtained:
# Assay in all cases: glycan array binding signal (z-score within array); higher = stronger binding
# Conditions in all cases: glycan notation: IUPAC condensed, linker removed
# Fuc(a1-2)Gal = biological target: Fuc(a1-2)Gal
# In short: (§1)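 Columns mapping to the same glycan were averaged after glycan names were converted to IUPAC-condensed notation. The data come from 3228 arrays in the Consortium for Functional Glycomics database, limited to those with an available protein sequence. Binding is reported as a within-array Z-score averaged across arrays of one protein sequence and across linkers.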
# Fuc(a1-2)Gal(b1-3)GalNAc = biological target: Fuc(a1-2)Gal(b1-3)GalNAc
# In short: as §1
# [1] = biological target: Fuc(a1-2)Gal(b1-3)GalNAc(b1-3)Gal
# In short: as §1
# [2] = biological target: Fuc(a1-2)Gal(b1-3)GalNAc(b1-3)Gal(a1-4)Gal(b1-4)Glc
# In short: as §1
# [3] = biological target: Fuc(a1-2)Gal(b1-3)GalNAc(b1-4)[Neu5Ac(a2-3)]Gal(b1-4)Glc
# In short: as §1
# Fuc(a1-2)Gal(b1-3)GlcNAc = biological target: Fuc(a1-2)Gal(b1-3)GlcNAc
# In short: as §1
# [4] = biological target: Fuc(a1-2)Gal(b1-3)GlcNAc(b1-3)Gal(b1-4)Glc
# In short: as §1
# [5] = biological target: Fuc(a1-2)Gal(b1-3)[Fuc(a1-4)]GlcNAc
# In short: as §1
# Fuc(a1-2)Gal(b1-4)Glc = biological target: Fuc(a1-2)Gal(b1-4)Glc
# In short: as §1
# Fuc(a1-2)Gal(b1-4)Glc6S = biological target: Fuc(a1-2)Gal(b1-4)Glc6S
# In short: as §1
# Fuc(a1-2)Gal(b1-4)GlcNAc = biological target: Fuc(a1-2)Gal(b1-4)GlcNAc
# In short: as §1
# [6] = biological target: Fuc(a1-2)Gal(b1-4)GlcNAc(b1-3)Gal(b1-4)GlcNAc
# In short: as §1
# [7] = biological target: Fuc(a1-2)Gal(b1-4)GlcNAc(b1-3)Gal(b1-4)GlcNAc(b1-3)Gal(b1-4)GlcNAc
# In short: as §1
# [8] = biological target: Fuc(a1-2)Gal(b1-4)GlcNAc6S
# In short: as §1
# [9] = biological target: Fuc(a1-2)Gal(b1-4)[Fuc(a1-3)]GlcNAc
# In short: as §1
# [10] = biological target: Fuc(a1-2)Gal(b1-4)[Fuc(a1-3)]GlcNAc(b1-3)Gal(b1-4)[Fuc(a1-3)]GlcNAc
# In short: as §1
# [11] = biological target: Fuc(a1-2)Gal(b1-4)[Fuc(a1-3)]GlcNAc(b1-3)Gal(b1-4)[Fuc(a1-3)]GlcNAc(b1-3)Gal(b1-4)[Fuc(a1-3)]GlcNAc
# In short: as §1
# Fuc(a1-2)Gal6S(b1-4)Glc = biological target: Fuc(a1-2)Gal6S(b1-4)Glc
# In short: as §1
# [12] = biological target: Fuc(a1-2)Gal6S(b1-4)Glc6S
# In short: as §1
# [13] = biological target: Fuc(a1-2)Gal6S(b1-4)GlcNAc
# In short: as §1
# Fuc(a1-2)GlcNAc = biological target: Fuc(a1-2)GlcNAc
# In short: as §1
# Fuc(a1-2)[Gal(a1-3)]Gal = biological target: Fuc(a1-2)[Gal(a1-3)]Gal
# In short: as §1
# [14] = biological target: Fuc(a1-2)[Gal(a1-3)]Gal(b1-3)GlcNAc
# In short: as §1
# [15] = biological target: Fuc(a1-2)[Gal(a1-3)]Gal(b1-4)Glc
# In short: as §1
# [16] = biological target: Fuc(a1-2)[Gal(a1-3)]Gal(b1-4)GlcNAc
# In short: as §1
# [17] = biological target: Fuc(a1-2)[Gal(a1-3)]Gal(b1-4)[Fuc(a1-3)]GlcNAc
# In short: as §1
# [18] = biological target: Fuc(a1-2)[Gal(a1-4)]Gal(b1-4)GlcNAc
# In short: as §1
# [19] = biological target: Fuc(a1-2)[GalNAc(a1-3)]Gal
# In short: as §1
# [20] = biological target: Fuc(a1-2)[GalNAc(a1-3)]Gal(b1-3)GlcNAc
# In short: as §1
# [21] = biological target: Fuc(a1-2)[GalNAc(a1-3)]Gal(b1-4)Glc
# In short: as §1
# [22] = biological target: Fuc(a1-2)[GalNAc(a1-3)]Gal(b1-4)GlcNAc
# In short: as §1
# [23] = biological target: Fuc(a1-2)[GalNAc(a1-3)]Gal(b1-4)[Fuc(a1-3)]GlcNAc
# In short: as §1
# [24] = biological target: Fuc(a1-2)[GalNAc(a1-4)]Gal(b1-4)GlcNAc
# In short: as §1
# [25] = biological target: Fuc(a1-2)[GalNAc(b1-3)]Gal
# In short: as §1
# Fuc(a1-3)GlcNAc = biological target: Fuc(a1-3)GlcNAc
# In short: as §1
# [26] = biological target: Fuc(a1-3)[Gal(b1-4)]Glc6S
# In short: as §1
# [27] = biological target: Fuc(a1-3)[Gal(b1-4)]GlcNAc
# In short: as §1
# [28] = biological target: Fuc(a1-3)[Gal(b1-4)]GlcNAc(b1-2)Man(a1-3)[Fuc(a1-3)[Gal(b1-4)]GlcNAc(b1-2)Man(a1-6)]Man(b1-4)GlcNAc(b1-4)GlcNAc
# In short: as §1
# [29] = biological target: Fuc(a1-3)[Gal(b1-4)]GlcNAc(b1-2)Man(a1-6)[Gal(b1-4)GlcNAc(b1-2)Man(a1-3)]Man(b1-4)GlcNAc(b1-4)GlcNAc
# In short: as §1
# [30] = biological target: Fuc(a1-3)[Gal(b1-4)]GlcNAc(b1-3)Gal(b1-3)[Fuc(a1-4)]GlcNAc
# In short: as §1
# [31] = biological target: Fuc(a1-3)[Gal(b1-4)]GlcNAc(b1-4)Gal(b1-4)[Fuc(a1-3)]GlcNAc
# In short: as §1
# [32] = biological target: Fuc(a1-3)[Gal(b1-4)]GlcNAc(b1-4)Gal(b1-4)[Fuc(a1-3)]GlcNAc(b1-4)Gal(b1-4)[Fuc(a1-3)]GlcNAc
# In short: as §1
# [33] = biological target: Fuc(a1-3)[Gal(b1-4)]GlcNAc6S
# In short: as §1
# [34] = biological target: Fuc(a1-3)[Gal3S(b1-4)]Glc6S
# In short: as §1
# [35] = biological target: Fuc(a1-3)[Gal3S(b1-4)]GlcNAc
# In short: as §1
binder,measurement,setting,value
B1,glycan array binding signal (z-score),Fuc(a1-2)Gal,-0.783
same,glycan array binding signal (z-score),Fuc(a1-2)Gal(b1-3)GalNAc,-0.39
same,glycan array binding signal (z-score),[1],-0.303
same,glycan array binding signal (z-score),[2],-0.365
same,glycan array binding signal (z-score),[3],-0.426
same,glycan array binding signal (z-score),Fuc(a1-2)Gal(b1-3)GlcNAc,-0.472
same,glycan array binding signal (z-score),[4],-0.447
same,glycan array binding signal (z-score),[5],0.964
same,glycan array binding signal (z-score),Fuc(a1-2)Gal(b1-4)Glc,-0.7
same,glycan array binding signal (z-score),Fuc(a1-2)Gal(b1-4)Glc6S,-0.065
same,glycan array binding signal (z-score),Fuc(a1-2)Gal(b1-4)GlcNAc,-0.359
same,glycan array binding signal (z-score),[6],-0.467
same,glycan array binding signal (z-score),[7],-0.435
same,glycan array binding signal (z-score),[8],-0.129
same,glycan array binding signal (z-score),[9],0.373
same,glycan array binding signal (z-score),[10],0.133
same,glycan array binding signal (z-score),[11],0.167
same,glycan array binding signal (z-score),Fuc(a1-2)Gal6S(b1-4)Glc,-0.301
same,glycan array binding signal (z-score),[12],0.13
same,glycan array binding signal (z-score),[13],-0.254
same,glycan array binding signal (z-score),Fuc(a1-2)GlcNAc,-0.751
same,glycan array binding signal (z-score),Fuc(a1-2)[Gal(a1-3)]Gal,-0.534
same,glycan array binding signal (z-score),[14],-0.624
same,glycan array binding signal (z-score),[15],-0.517
same,glycan array binding signal (z-score),[16],-0.516
same,glycan array binding signal (z-score),[17],0.906
same,glycan array binding signal (z-score),[18],-0.442
same,glycan array binding signal (z-score),[19],-0.41
same,glycan array binding signal (z-score),[20],-0.409
same,glycan array binding signal (z-score),[21],-0.5
same,glycan array binding signal (z-score),[22],-0.287
same,glycan array binding signal (z-score),[23],2.73
same,glycan array binding signal (z-score),[24],-0.542
same,glycan array binding signal (z-score),[25],-0.633
same,glycan array binding signal (z-score),Fuc(a1-3)GlcNAc,-0.465
same,glycan array binding signal (z-score),[26],3.04
same,glycan array binding signal (z-score),[27],-0.027
same,glycan array binding signal (z-score),[28],-0.257
same,glycan array binding signal (z-score),[29],-0.509
same,glycan array binding signal (z-score),[30],-0.183
same,glycan array binding signal (z-score),[31],0.48
same,glycan array binding signal (z-score),[32],0.16
same,glycan array binding signal (z-score),[33],2.1
same,glycan array binding signal (z-score),[34],3.7
same,glycan array binding signal (z-score),[35],2.17
